Reference: the supplement of paper PMC10126150
Sequences with one replicate were seen in a single cluster, so their values are uncertain.

Tested on: ATP
Assay: switch fluorescence ratio, 500 uM ATP over buffer (Cy3 cluster intensity, sum of 5 cycles each) (fold (ratio)); higher = stronger signal-on switching upon ATP binding; sequences stand for … in TCGTCGGCAGCGTCAGATGTGTATAAGAGACAGTTTTTTTTTTTTTTTTTTTTTTTTT…TC
Conditions: aptamer strand: ATP DNA aptamer (quencher-CACCTGGGGGAGTATTGCGGAGGAAGG + anchor), 100 nM annealed; ATP concentration: 500 uM; one replicate
Procedure, shortened: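 Per cluster, summed Cy3 intensity from the target cycles was divided by that from the buffer cycles to give the fluorescence ratio, then averaged per switch-domain sequence. Clusters outside 100-1000 RFU were excluded. The Cy3-labelled switching-strand clusters, on a modified Illumina MiSeq flow-cell, were annealed to 100 nM quencher-labelled ATP aptamer and imaged in selection buffer, then after 15 min with 500 uM ATP at 22 °C, for five cycles with NaOH stripping and re-annealing between them.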
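Also: ATP exposure 15 min at 22 °C before imaging.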

Row | Sequence | switch fluorescence ratio
1 | ATAGCACGGT | 1.11
2 | TGATATAAAG | 0.999
3 | ATGGTCCTG | 1.01
4 | GGGAGCTGGG | 0.975
5 | CAACGCGCTT | 1.03
6 | AAGGGAGTCC | 0.991
7 | AATGGGTA | 1
8 | CGTGAATAGG | 0.971
9 | GAGGAGCCGT | 1.14
10 | TGGAGGGCGC | 0.959
11 | AAACAGGACC | 0.996
12 | AGGAAGCGC | 1.08
13 | GTGATCATGG | 1.01
14 | ACGATCCTAG | 1.02
15 | ACAAGGAAGC | 1.15
16 | GGCTTGCCCG | 0.992
17 | AACCTTATCG | 1.19
18 | CCAGGAGGTG | 1.34
19 | GTGGTAAAAC | 0.975
20 | TCGAAGTCTC | 1.12
21 | GAGTCGAAGG | 1.04
22 | ATATTATGCC | 1.01
23 | GGGCTGATAT | 1.18

Row | Sequence | switch fluorescence ratio
24 | TAGAGGACGG | 0.995
25 | TCCTCGGTG | 1.14
26 | CGCGGGACAT | 1.03
27 | CGCGGTCACT | 1.25
28 | AAGTTATCAA | 1.02
29 | AGTCTTATTA | 0.99
30 | ATTCCTGACG | 1.13
31 | AGTGTGATTT | 0.95
32 | TGCGGCGGGA | 0.966
33 | CGCATGAGCC | 1.33
34 | TGTGCGCCTC | 1.03
35 | CAGGTCTACA | 1.07
36 | ACAACGTG | 0.989
37 | GAGGACCAAC | 1.08
38 | GACTACCTGG | 1.1
39 | CGTTGTGGAT | 1
40 | AATGTAGATG | 1.02
41 | CCGGTCCGCT | 2.44
42 | TGGCACAAAC | 0.977
43 | GGGAGGGAG | 0.997
44 | TAAAAAATAA | 0.983
45 | TGAATTCAAC | 0.989
46 | GTGTCGTTAG | 0.978

Row | Sequence | switch fluorescence ratio
47 | GGTATGACAG | 0.969
48 | TATAAGGGTA | 1.01
49 | CATCAGATTA | 1.04
50 | GCAGGCAACA | 1
51 | GTGGCACAGG | 1.05
52 | AATAAATTAG | 1.06
53 | GATGTTCGGG | 1.02
54 | GGAAGTGGAC | 1.01
55 | TGTTCCATAT | 1
56 | ATGAACAGGA | 0.997
57 | TATAGGGTGG | 0.999
58 | ACATTGGCAT | 0.967
59 | CACAAGTCAA | 1.06
60 | ACAAGGAGTT | 0.974
61 | GCCATTCAAC | 1.03
62 | ATGAACACAC | 1.25
63 | TCAGATGCGG | 1.05
64 | AATAAACCTT | 2.62
65 | CGGAGAGTTC | 1.06
66 | GTCTTGGTGC | 1.09
67 | GTTAGACTGG | 1.02
68 | AGGGATTGAC | 1.03
69 | TGCTGGGCG | 0.944

Row | Sequence | switch fluorescence ratio
70 | GTAGGATAGC | 1.04
71 | TGGGGTCATC | 0.989
72 | ATAGCGGTCA | 0.965
73 | CCCCAAAAGG | 1.05
74 | CTTTGTTTTC | 0.961
75 | CCATACGATG | 1.06
76 | TTGCTGACGA | 1.06
77 | GGTGGTGTAA | 1.01
78 | TTAGACTGCG | 0.999
79 | CAATATAGCT | 1.02
80 | GGTGCTAGGG | 0.995
81 | GTTTCTGTTG | 1.01
82 | GATCGTCCGA | 1.04
83 | ACTAAAGGGT | 1.05
84 | ATCCACCCGA | 1.08
85 | TGGTTGCGGT | 1.03
86 | CTCTGATCGA | 0.974
87 | AAATGGGCCC | 1
88 | CTTTAATGAG | 1
89 | TCACAGGCCT | 1.01
90 | ATCACTGTTC | 1.01
91 | TACAAGGGTT | 0.951
92 | AATTAGCGGT | 1.04

Row | Sequence | switch fluorescence ratio
93 | CGTACTGGGC | 1.09
94 | GAGGAGAAGG | 1.03
95 | CGGAGTTTTA | 1.09
96 | AGACATGCCG | 0.961
97 | TTGGTAGCGC | 0.986
98 | GCGAAATCCA | 1.01
99 | CATGTCTCTG | 1.04
100 | GGTAGCGATT | 1.03
101 | TTGATTTTCT | 1.02
102 | CTAGGTGCTT | 1.36
103 | AATTGGCATG | 1.03
104 | GGTGGGGG | 1.03
105 | TTAACCCTGC | 1.04
106 | CGCGGCATAG | 1.16
107 | GGGAGCGAGA | 0.979
108 | GAGCCATCTA | 0.95
109 | AAAGAAAATT | 0.996
110 | AGTGGACCAC | 1.02
111 | AATTTCCTCC | 2.19
112 | TTCTCCCCGT | 1.14
113 | AGTGACCCAA | 1.01
114 | ACAACTGCAA | 1.39
115 | ATCAACGGTT | 0.984

Row | Sequence | switch fluorescence ratio
116 | TGCCTAATGA | 1.05
117 | CGGTACTAG | 0.973
118 | ACTTATTTCG | 1.03
119 | TTGCTCAGGT | 1.04
120 | CTGGTTACGT | 0.993
121 | ATGCAAAGTG | 0.963
122 | GGCCAGAGAA | 1.03
123 | TAGGTCCTCG | 1.02
124 | CGTAACAGAT | 0.982
125 | TTTTAGCAGT | 1.05
126 | ATTCATCCTT | 0.979
127 | TCCCAGTCGT | 1.01
128 | CAATAAGTAT | 1.02
129 | TTACCCAGTT | 1.07
130 | CACCGGCCCC | 1.1
131 | AATGCAGTGA | 1
132 | TTGCCCTGCA | 0.966
133 | CTTGAGAGGG | 0.963
134 | CTACACTACT | 1.38
135 | GCAGCATTGT | 1.15
136 | TAACGTAACG | 1.07
137 | ACGAAGATCT | 1.04
138 | TGGGGAGCCG | 0.999

Row | Sequence | switch fluorescence ratio
139 | GGCCGATTGC | 1.06
140 | AAGACGCGGA | 1
141 | AAAAGGAATG | 1.01
142 | CACTATGCGA | 1.2
143 | GATCATAAGA | 1.05
144 | GGTACGTCCG | 1.01
145 | TTTACTTTAA | 1.1
146 | CGTTTTAAGT | 0.943
147 | TAGTCATATG | 0.988
148 | CTCAATGCCG | 1.09
149 | TCATTGCGCG | 1.06
150 | AATTCCCATG | 1.03
151 | TTATTCAAG | 0.998
152 | CCCAAGGTTT | 1.11
153 | TTCGCTTGTG | 1.01
154 | GGTAGCGACG | 0.995
155 | TGCAGAAAAC | 1.06
156 | CATGAGTTAA | 1.02
157 | ACATTAGCA | 1.04
